Source: PubChem BioAssay AID624417 (National Center for Advancing Translational Sciences (NCATS), 2012)
The whole screen tested about 410,000 compounds, of which about 6,400 (1.6%) were called active. Inconclusive results, whose numbers are uncertain, are shown with a selection of clear calls. The call rests on the fitted dose curve; in most records, active means well fitted inhibition curve with a large enough effect; inconclusive means small, poorly fitted or top-dose-only effect; inactive means no such curve, though single readings can be large or run the other way. Potencies of inconclusive entries are left out as doubtful fits.

These compounds were tested against Glucagon-like peptide 1 receptor (Homo sapiens) (UniProt P43220) (assay: qHTS of GLP-1 Receptor Inverse Agonists (Inhibition Mode)). Conditions: HEK293 GLP-1R CRE-luciferase, luminescence, 24 h, GLP-1R form is constitutively active; activity change, negative = inhibition: at 38.3 µM (top of the series) unless noted.
Summary of the method: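 Constitutively active GLP-1R drives a cAMP-responsive luciferase in stably transfected HEK293 cells; test compounds are added after overnight (12 h) attachment and left 24 hr, and signal loss in luminescence marks inhibition.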
Further: nearly all actives have a fitted effect of over 55% in size.
On the % scale 0 is the no-effect control and ±100 the full control effect; potency means the concentration at half of the fitted maximal effect; tags describe the fitted curve by direction and shape.

UniProt P43220, sequence (P43220 whole entry, looked up): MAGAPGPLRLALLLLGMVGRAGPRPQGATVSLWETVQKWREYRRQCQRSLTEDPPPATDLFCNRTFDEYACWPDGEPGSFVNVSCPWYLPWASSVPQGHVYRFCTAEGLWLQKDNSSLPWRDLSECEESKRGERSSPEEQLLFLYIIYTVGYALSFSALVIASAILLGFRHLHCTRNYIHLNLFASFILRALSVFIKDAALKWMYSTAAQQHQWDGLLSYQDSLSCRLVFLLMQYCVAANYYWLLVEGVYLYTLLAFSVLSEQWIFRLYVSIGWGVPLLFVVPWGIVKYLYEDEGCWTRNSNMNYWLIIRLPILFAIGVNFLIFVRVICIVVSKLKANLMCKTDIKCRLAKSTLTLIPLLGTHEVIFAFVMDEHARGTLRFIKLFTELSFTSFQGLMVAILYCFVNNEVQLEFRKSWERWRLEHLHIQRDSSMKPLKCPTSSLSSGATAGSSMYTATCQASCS

Row | Structure (SMILES) | Potency | activity change, negative = inhibition
1 | CC(C)(C)c1cc(/C=N/O)cc(C(C)(C)C)c1O | active: 10 µM | –
2 | COc1ccc(-c2noc(-c3ccc(N4CCC(C)CC4)c([N+](=O)[O-])c3)n2)cc1OC | – | inactive: 15.5%
3 | COC[C@H]1CCCN1c1ccc2c(c1)O[C@@H](COCc1ccccc1)CN([C@@H](C)c1ccccc1)S2(=O)=O | inconclusive [inhibitor, partial curve, poor fit] | –
4 | O=C(NCCc1csc2nc(-c3cccc(F)c3)nn12)c1ccc(Br)o1 | – | inactive: -15.9%
5 | CCN(CC)c1ccc(/C=N/NC(=O)Cc2cccs2)c(O)c1 | inconclusive [inhibitor, full curve, poor fit] | –
6 | Oc1c(CN2CCN(c3ccccc3)CC2)cc(Br)c2cccnc12 | – | inactive: -22.8%
7 | Nc1[nH]c(=O)[nH]c(=O)c1N=Cc1ccccc1 | – | inactive: 15.5%
8 | Cn1cccc1Cc1nnc(SCC(=O)Nc2ccc(F)cc2)n1CCc1ccccc1 | inconclusive [inhibitor, single point] | –
9 | COc1cc(-c2noc(-c3ccc(NC4CCCCC4)c([N+](=O)[O-])c3)n2)cc(OC)c1OC | – | inactive: 0.0133%
10 | Cc1ccc(NC(=O)CSc2nc(-c3cccs3)cc(C(F)(F)F)n2)cc1C | – | inactive: -28.3%
11 | CN(C(=O)Cc1c[nH]c2ccccc12)C(C(=O)Nc1ccc2c(c1)OCO2)c1ccccc1 (centres undefined) | inconclusive [inhibitor, partial curve, poor fit] | –
12 | O=C(COc1ccccc1[N+](=O)[O-])N/N=C/c1cccc(OC(=O)c2ccc3c(c2)OCO3)c1 | inconclusive [inhibitor, single point] | –
13 | O=C1CC2(CCN(C(=O)c3ccccc3Br)CC2)Oc2ccccc21 | inconclusive [inhibitor, single point] | –
14 | CC1=C(C(=O)Nc2cc(C(=O)N3CCN(c4cccc(C)c4)C(C)C3)ccc2C)SCCO1 (centres undefined) | inconclusive [inhibitor, single point] | –
15 | Cc1cc(Nc2ccc(C(C)C)cc2)nc(-n2nc(C)cc2C)n1 | inconclusive [inhibitor, partial curve, poor fit] | –
16 | Cc1nnc(SCc2ccccc2Cl)c2cc3occc3n12 | – | inactive: -25%
17 | Cc1cccc2sc(N(Cc3cccnc3)C(=O)Cc3ccccc3)nc12 | inconclusive [inhibitor, single point] | –
18 | CCC1C(=O)Nc2nc(-c3ccccc3)c(-c3ccccc3)n2N=C1C (centres undefined) | inconclusive [inhibitor, single point] | –
19 | CCOC(=O)c1c(NC(=O)c2ccccc2Br)sc2c1CCc1ccccc1-2 | inconclusive [inhibitor, single point] | –
20 | COCC(CN1CCN(C2=NS(=O)(=O)c3ccccc32)CC1)OC(=O)c1ccc(OC)cc1 (centres undefined) | inconclusive [inhibitor, full curve] | –
21 | Cc1cc(C)n(/N=C/c2cc([N+](=O)[O-])ccc2O)c(=O)c1 | – | inactive: -15.1%
22 | Cc1ccc(NC(=O)C(Cc2ccccc2)n2cccc2)c(C)c1 (centres undefined) | inconclusive [inhibitor, single point] | –

Row | Structure (SMILES) | Potency | activity change, negative = inhibition
23 | O=C(Nc1ccc(F)cc1)C1CC2CCC1C2 (centres undefined) | inconclusive [inhibitor, single point] | –
24 | CC(C)C(C)NC(=O)COc1ccc(-c2ccccc2)cc1 (centres undefined) | inconclusive [inhibitor, partial curve, poor fit] | –
25 | C/C(=N/Oc1nc(C)cc(C)n1)c1ccc(Cl)cc1Cl | inconclusive [inhibitor, single point] | –
26 | O=C(NCCC1CCCCN1S(=O)(=O)c1ccccc1)C(=O)NCc1ccccc1 (centres undefined) | inconclusive [inhibitor, single point] | –
27 | Cc1ccc(CC(=O)NC2CCN(C)CC2)cc1 | – | inactive: 1.19%
28 | NC(COCc1ccccc1)c1csc(Nc2cc(Oc3ccccc3)ncn2)n1 (centres undefined) | inconclusive [inhibitor, single point] | –
29 | Cc1nn(CC(=O)NC(=O)NC2CCCC(C)C2C)c(=O)c(C#N)c1C (centres undefined) | inconclusive [inhibitor, single point] | –
30 | COCOCCn1cc(CN2CCS(=O)(=O)N(Cc3ccc(-c4ccc(C)cc4)cc3)C(C)C2=O)nn1 (centres undefined) | inconclusive [inhibitor, single point] | –
31 | O=C(OCc1cn([C@H]2C[C@H](c3ccccc3)N(C(=O)c3cccs3)C[C@@H]2O)nn1)c1ccccc1 | – | inactive: -9.16%
32 | CCCCNS(=O)(=O)c1ccc2nc(SCC(=O)Nc3sccc3C#N)[nH]c2c1 | inconclusive [inhibitor, single point] | –
33 | CC(C)CCOc1ccc(Oc2nc(N(C)C)nc(N(C)C)n2)nn1 | – | inactive: 7.46%
34 | CN(Cc1ccccc1)C(=O)C(=O)c1c[nH]c2ccccc12 | inconclusive [inhibitor, single point] | –
35 | Cc1cc(N2CCCC2)ccc1NC(=O)CN1C(=O)NC(C)(c2ccccc2)C1=O (centres undefined) | inconclusive [inhibitor, full curve] | –
36 | Cc1ccc(S(=O)(=O)NCCC(=O)NCC(=O)Nc2c(C)cccc2C)cc1C | inconclusive [inhibitor, single point] | –
37 | O=C(NCCc1cccnc1)c1cc(COc2ccc(F)cc2Cl)on1 | inconclusive [inhibitor, partial curve, poor fit] | –
38 | COc1ccccc1NC(=O)N[C@@H](Cc1c[nH]c2ccccc12)C(=O)NN | inconclusive [inhibitor, partial curve] | –
39 | CCC(=O)N1CCC2(CC1)Oc1ccc(F)cc1C(=O)C21CC(c2ccc(Cl)cc2)=NO1 (centres undefined) | inconclusive [inhibitor, single point] | –
40 | Cc1nc2ccc(S(=O)(=O)N(CC(=O)Nc3ccc(Cl)cc3)Cc3ccccc3)cc2s1 | – | inactive: -0.809%
41 | O=C(CN(C(=O)CCC(=O)Nc1ccccn1)c1ccc(F)cc1)NCc1ccc(F)cc1 | – | inactive: -10.6%
42 | O=C(c1ccc(F)cc1)N1CCN(Cc2ccccc2Br)CC1 | inconclusive [inhibitor, partial curve, poor fit] | –
43 | O=C(C1=C[C@@H](c2ccc(Br)cc2)C[C@@H](OCCCCO)O1)N1CCN(Cc2ccccc2)CC1 | inconclusive [inhibitor, partial curve, poor fit] | –
44 | O=C1C=C(/C=C/c2ccccc2)C[C@@H](c2ccc(F)cc2)C1 | inconclusive [inhibitor, single point] | –

Row | Structure (SMILES) | Potency | activity change, negative = inhibition
45 | CCOC(=O)C1(CCOc2ccccc2)CCN(Cc2cccc(OC)c2O)CC1 | inconclusive [inhibitor, partial curve, poor fit] | –
46 | CCCNC(=O)c1cc2c(c(-c3cccc(-c4ccc(F)cc4)c3)n1)[C@@H](CCO)N(S(=O)C(C)(C)C)C2 (some centres undefined) | inconclusive [inhibitor, single point] | –
47 | CN(C)CCCn1c(=O)n(C2CCCCC2)c(=O)c2c3c(sc21)CCCCC3 | inconclusive [inhibitor, full curve, poor fit] | –
48 | Cc1[nH]c2ccccc2c1/C=N/NS(=O)(=O)c1ccccc1 | inconclusive [inhibitor, partial curve, poor fit] | –
49 | COc1ccc(C(=O)CCN2CCN(c3ccccc3F)CC2)cc1 | inconclusive [inhibitor, single point] | –
50 | CC1(C)Cc2c(C#N)c(NCCN3CCOCC3)nc(-c3ccccc3)c2CO1 | inconclusive [inhibitor, single point] | –
51 | CCCC(C(=O)NC1CCCC1)N(C(=O)Cn1nnc(-c2ccc(C)o2)n1)c1ccccc1F (centres undefined) | inconclusive [inhibitor, partial curve] | –
52 | CC(C)(C)c1ccc(SCCc2ccncc2)cc1 | inconclusive [inhibitor, single point] | –
53 | CC1(C)CC(=O)C(CS(=O)(=O)c2ccccc2)=C(O)C1 | inconclusive [inhibitor, full curve] | –
54 | COc1ccc(Cl)cc1Nc1nc(-c2sc(NC(=O)C(C)(C)C)nc2C)cs1 | inconclusive [inhibitor, full curve, poor fit] | –
55 | CCCC(=O)N/C(N)=N/c1nc2ccccc2o1 | inconclusive [inhibitor, single point] | –
56 | COc1ccc(S(=O)(=O)N(CCc2ccccc2)CC(=O)Nc2cc(C)ccc2C)cc1 | inconclusive [inhibitor, partial curve, poor fit] | –
57 | COc1ccccc1CNC(=O)C1(C)CCN1Cc1ccc2ccccc2c1 (centres undefined) | inconclusive [inhibitor, single point] | –
58 | CCn1cc(C(=O)NCCOC)c(=O)c2cc(S(=O)(=O)N3CCOCC3)ccc21 | – | inactive: 10.2%
59 | Cc1cccc(NC(=O)c2oc3ccc(S(=O)(=O)N4CCOCC4)cc3c2C)c1C | inconclusive [inhibitor, single point] | –
60 | CCc1ccc(NC(=O)C2CCN(S(=O)(=O)c3c(C)noc3/C=C/c3cccs3)CC2)cc1 | inconclusive [inhibitor, full curve] | –
61 | CCC(C)(C)n1nnnc1C(c1cccs1)N1CCCCC1 (centres undefined) | inconclusive [inhibitor, single point] | –
62 | CCOC(=O)CC(=O)CSc1nc2ccccc2c(=O)n1CCc1ccccc1 | inconclusive [inhibitor, single point] | –
63 | Cc1cc([N+](=O)[O-])nn1CC(=O)NNC(=S)Nc1ccc(F)cc1 | – | inactive: 23%
64 | COc1cccc(CNC(=O)CN(c2ccc(C(C)C)cc2)S(=O)(=O)c2c(C)n[nH]c2C)c1 | – | inactive: -29.3%
